According to article PMC6467649 (Molecular pharmaceutics, 2019):

Tests used:
[1] = target: bile salt export pump (BSEP), p.444A variant (Homo sapiens, UniProt O95342, V444A); type: biochemical
[2] = substrate: C[C@H](CCC(=O)NCC(=O)O)[C@H]1CC[C@H]2[C@@H]3[C@H](O)C[C@@H]4C[C@H](O)CC[C@]4(C)[C@H]3C[C@H](O)[C@]12C; test: ATP-dependent transport kinetics in Sf9 membrane vesicles; type: biochemical, Homo sapiens

CC1=C(CC(=O)O)c2cc(F)ccc2/C1=C\c1ccc([S+](C)[O-])cc1 (centres unmarked) [sulindac]
IC50 [1]: 136 ± 25.1 µM

B1: bile salt export pump (BSEP), p.444A variant (Homo sapiens; V444A) (protein)
chain: MSDSVILRSIKKFGEENDGFESDKSYNNDKKSRLQDEKKGDGVRVGFFQLFRFSSSTDIWLMFVGSLCAFLHGIAQPGVLLIFGTMTDVFIDYDVELQELQIPGKACVNNTIVWTNSSLNQNMTNGTRCGLLNIESEMIKFASYYAGIAVAVLITGYIQICFWVIAAARQIQKMRKFYFRRIMRMEIGWFDCNSVGELNTRFSDDINKINDAIADQMALFIQRMTSTICGFLLGFFRGWKLTLVIISVSPLIGIGAATIGLSVSKFTDYELKAYAKAGVVADEVISSMRTVAAFGGEKREVERYEKNLVFAQRWGIRKGIVMGFFTGFVWCLIFLCYALAFWYGSTLVLDEGEYTPGTLVQIFLSVIVGALNLGNASPCLEAFATGRAAATSIFETIDRKPIIDCMSEDGYKLDRIKGEIEFHNVTFHYPSRPEVKILNDLNMAIKPGEMTALVGPSGAGKSTALQLIQRFYDPCEGMVTVDGHDIRSLNIQWLRDQIGIVEQEPVLFSTTIAENIRYGREDATMEDIVQAAKEANAYNFIMDLPQQFDTLVGEGGGQMSGGQKQRVAIARALIRNPKILLLDMATSALDNESEAMVQEVLSKIQHGHTIISVAHRLSTVRAADTIIGFEHGTAVERGTHEELLERKGVYFTLVTLQSQGNQALNEEDIKDATEDDMLARTFSRGSYQDSLRASIRQRSKSQLSYLVHEPPLAVVDHKSTYEEDRKDKDIPVQEEVEPAPVRRILKFSAPEWPYMLVGSVGAAVNGTVTPLYAFLFSQILGTFSIPDKEEQRSQINGVCLLFVAMGCVSLFTQFLQGYAFAKSGELLTKRLRKFGFRAMLGQDIAWFDDLRNSPGALTTRLATDASQVQGAAGSQIGMIVNSFTNVTVAMIIAFSFSWKLSLVILCFFPFLALSGATQTRMLTGFASRDKQALEMVGQITNEALSNIRTVAGIGKERRFIEALETELEKPFKTAIQKANIYGFCFAFAQCIMFIANSASYRYGGYLISNEGLHFSYVFRVISAVVLSATALGRAFSYTPSYAKAKISAARFFQLLDRQPPISVYNTAGEKWDNFQGKIDFVDCKFTYPSRPDSQVLNGLSVSISPGQTLAFVGSSGCGKSTSIQLLERFYDPDQGKVMIDGHDSKKVNVQFLRSNIGIVSQEPVLFACSIMDNIKYGDNTKEIPMERVIAAAKQAQLHDFVMSLPEKYETNVGSQGSQLSRGEKQRIAIARAIVRDPKILLLDEATSALDTESEKTVQVALDKAREGRTCIVIAHRLSTIQNADIIAVMAQGVVIEKGTHEELMAQKGAYYKLVTTGSPIS
Km [2]: 45.70 ± 25.52 µM
